Data from PubChem BioAssay AID485294 (National Center for Advancing Translational Sciences (NCATS), 2010).
The campaign covered roughly 370,000 compounds. About 150 (0.041%) were called active. This list was built around the results that the source calls inconclusive (neither active nor inactive); the mix of calls is not that of the screen. Calls come from the whole dose curve; as a rule, active = well fitted inhibition curve with a large enough effect; inconclusive = small, poorly fitted or top-dose-only effect; inactive = flat fitted curve, though single readings scatter. No potency is given beside an inconclusive call; the fits are too rough.

Each molecule was assayed against Beta-lactamase (Escherichia coli (strain K12)) (UniProt P00811) (assay: qHTS Inhibitors of AmpC Beta-Lactamase (assay with detergent)). Details: AmpC hydrolysis of nitrocefin, absorbance 480 nm, 0.01% Triton; series mostly up to 114 µM.
Sequence of UniProt P00811 (P00811 whole entry, looked up): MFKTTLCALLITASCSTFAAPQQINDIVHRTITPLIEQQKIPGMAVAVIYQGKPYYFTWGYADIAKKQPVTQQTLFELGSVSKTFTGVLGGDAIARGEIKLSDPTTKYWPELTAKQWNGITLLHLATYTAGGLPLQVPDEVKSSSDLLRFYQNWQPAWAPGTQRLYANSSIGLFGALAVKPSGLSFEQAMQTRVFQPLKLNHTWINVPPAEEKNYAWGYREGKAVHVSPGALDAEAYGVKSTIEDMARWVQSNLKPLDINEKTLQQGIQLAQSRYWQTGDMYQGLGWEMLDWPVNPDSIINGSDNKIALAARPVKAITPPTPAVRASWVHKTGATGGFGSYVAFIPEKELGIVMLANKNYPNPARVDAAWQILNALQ
Method in brief: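 20 mM phosphate pH 7.0 + 0.01% (detergent screen) or 0.0001% Triton X-100; 5.3 nM AmpC reagent; cpd preinc 15 min RT; nitrocefin (800 uM stock) to start; A480 q20 s × 4 min; Activity was normalised to no-enzyme and no-compound control wells.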
Note: nearly all actives have a fitted effect of over 25% in size.
Potency is the fitted concentration of half-maximal effect; tags give direction and shape of the fitted curve.

| SMILES | Potency |
| --- | --- |
| Cc1ccccc1C1CC(=O)NC2=C1C(=O)CCC2 (stereo unspecified) | inconclusive [inhibitor, full curve, poor fit] |
| CCN1/C(=C/c2ccc3cc(C)ccc3[n+]2CC)Sc2cc(C)c(C)cc21 | inactive |
| COc1ccc(CC(=O)NCCS(=O)(=O)N2CCN(c3ccccc3)CC2)cc1 | inconclusive [inhibitor, full curve, poor fit] |
| Nc1nc(NCC(=O)O)nc(N2CCCCCC2)c1[N+](=O)[O-] | inconclusive [inhibitor, single point] |
| Cc1ccc(NC(=O)CSCC(=O)NC2CCCCC2)cc1 | inconclusive [inhibitor, partial curve, poor fit] |
| COc1cccc(C(=O)Nc2cccc(OC(C)=O)c2)c1 | inactive |
| CCn1c(/C=N/n2cnnc2)nc2ccccc21 | inconclusive [inhibitor, full curve, poor fit] |
| COc1ccc(Cn2c(=O)[nH]c3cc(C(=O)N4CCN(Cc5ccccc5)CC4)ccc3c2=O)cc1 | inactive |
| CCOc1ccc(OCc2ccc(C(=O)Nc3cccc(C)n3)o2)cc1 | inconclusive [inhibitor, partial curve, poor fit] |
| COc1ccc(N2CCN(C(=O)c3cc(-c4ccc(C)c(F)c4)on3)CC2)cc1 | inactive |
| Clc1nc(NCc2ccco2)nc(N2CCCCC2)n1 | inactive |
| Cc1ccc(O)c(NC(=O)CCC2CCCCC2)c1 | inactive |
| CCOC(=O)c1cc2sccc2n1CC(=O)N1CCCC1 | inconclusive [inhibitor, partial curve, poor fit] |
| COc1ccc(C2C(C#N)=C(N)Oc3cccc(O)c32)cc1 (stereo unspecified) | inconclusive [inhibitor, partial curve] |
| Cn1c(SCCN2CCCCC2)nnc1-c1ccccc1Br | inconclusive [inhibitor, partial curve] |
| c1ccc(-c2csc3ncn4nnnc4c23)cc1 | inactive |
| Cc1ccc(S(=O)(=O)CNC(=O)c2ccccc2)cc1 | inactive |
| COCCSc1nnc(NC(=O)C2CCCCC2)s1 | inconclusive [inhibitor, full curve, poor fit] |
| CCc1noc(C)c1C(=O)Nc1nc(-c2ccc(NC(C)=O)cc2)cs1 | inactive |
| Cc1occc1C(=O)Nc1cccc(Cl)c1Cl | inconclusive [inhibitor, full curve] |
| COc1cc(Cl)c(C)cc1NC(=O)CCCN1C(=O)CCC1=O | inconclusive [inhibitor, single point] |
| CC(=O)Nc1ccc(C(=O)COC(=O)CCN2C(=O)C3CC=CCC3C2=O)cc1 (stereo unspecified) | inactive |
| O=C(NC12CC3CC(CC(C3)C1)C2)c1cccc([N+](=O)[O-])c1 | inactive |
| O=C(Nc1ccc(Br)cc1)c1cccc(NC(=O)C2C3CC4OC(=O)C2C4C3)c1 (stereo unspecified) | inconclusive [inhibitor, full curve, poor fit] |

| SMILES | Potency |
| --- | --- |
| Cc1coc2c1c(C)cc1oc(=O)c(CC(=O)NCCc3ccc(Cl)cc3)c(C)c12 | inactive |
| O=C(c1cc(COc2ccccc2)on1)N1CCCC(CN2CCOCC2)C1 (stereo unspecified) | inconclusive [inhibitor, full curve, poor fit] |
| O=C(NCc1ccco1)c1ccc2c(=O)n(Cc3ccco3)c(SCC(=O)N3CCCC3)nc2c1 | inconclusive [inhibitor, single point] |
| O=C1N/C(=C/c2cccn2-c2ccc(F)cc2)C(=O)N1Cc1ccccc1F | inconclusive [inhibitor, full curve] |
| CCn1ncc([N+](=O)[O-])c1C(=O)Nc1cc(C)on1 | inconclusive [inhibitor, single point] |
| O=C(CCCn1c(=O)c2cccn2c2cccnc21)Nc1ccccc1C(F)(F)F | inactive |
| CC(=O)c1ccc2oc3ccccc3c(=O)c2c1 | inactive |
| Cc1ccc(CNC(=O)c2c(-c3ccc(Br)cc3)noc2C)o1 | inactive |
| O=C(Nc1ccc2c(c1)OCCO2)C1CCCN(S(=O)(=O)c2cnc[nH]2)C1 (stereo unspecified) | inconclusive [inhibitor, full curve, poor fit] |
| Cc1noc(C)c1S(=O)(=O)N1CCC(C(=O)NCCc2ccc(S(N)(=O)=O)cc2)CC1 | inconclusive [inhibitor, full curve, poor fit] |
| CCOC(=O)N1CCN(CC(=O)NC(=O)Nc2ccc3c(c2)OCCO3)CC1 | inactive |
| CCc1ccc(NC(=S)N2CCNC(=O)C2CC(=O)OC)cc1 (stereo unspecified) | inconclusive [inhibitor, full curve, poor fit] |
| COCC(=O)Nc1nnc(Cc2ccc(OC)c(OC)c2)s1 | inconclusive [inhibitor, full curve, poor fit] |
| CN1CCCN(Cc2ccc(Cl)cc2Cl)CC1 | inactive |
| CC(=O)/C(=N\Nc1ccc(C)cc1)Sc1nncn1C | inconclusive [inhibitor, partial curve, poor fit] |
| CCOC(=O)Cn1c(=O)n(CC2CCCO2)c2nc(-c3ccccc3Cl)nc(C(N)=O)c21 (stereo unspecified) | inactive |
| Cn1c(C(=O)N2CCC(C(=O)N3CCOCC3)CC2)cc2sccc21 | inconclusive [inhibitor, full curve, poor fit] |
| COc1cc(OC)c(OC)cc1CNc1cc(C)ccc1OC | inconclusive [inhibitor, partial curve] |
| CCCCn1c(N)c(C(=S)NC(=O)CC(C)C)c(=O)n(C)c1=O | inconclusive [inhibitor, full curve, poor fit] |
| O=C1CN(C(=O)CSc2nc(-c3ccc(Cl)cc3)cs2)c2ccccc2N1 | inconclusive [inhibitor, full curve, poor fit] |
| CCOc1ccc(OCC)c(NC(=O)CSc2nc3ccccc3c(=O)n2C)c1 | inconclusive [inhibitor, partial curve, poor fit] |
| CCCn1c(N)c(C(=O)CN(C)CC(=O)Nc2ccc(F)cc2)c(=O)[nH]c1=O | inconclusive [inhibitor, partial curve, poor fit] |
| Cc1cccc(NC(=O)CCN2C(=O)c3cccc([N+](=O)[O-])c3C2=O)c1 | inconclusive [inhibitor, partial curve] |
| CCOC(=O)Cc1csc(NC(=O)Nc2ccc(F)cc2)n1 | inactive |

| SMILES | Potency |
| --- | --- |
| COc1ccc(NC(=S)NC(NC(=O)c2cccc(Cl)c2)C(Cl)(Cl)Cl)c([N+](=O)[O-])c1 (stereo unspecified) | inactive |
| O=C1N(Cc2cccnc2)C[C@@H]2C[C@@H](c3cccc(C(F)(F)F)c3)N3CCC[C@@]123 | inactive |
| N#CC1(NC(=O)COC(=O)CN2C(=O)c3ccccc3C2=O)CCCCC1 | inconclusive [inhibitor, full curve, poor fit] |
| CCCc1nc(SCC(=O)NNC(=O)c2ccc(OC)cc2)c2ccccc2n1 | inactive |
| COc1ccc(NC(=O)CCNC(=O)c2ccco2)cc1Cl | inconclusive [inhibitor, full curve, poor fit] |
| CCN1C(=O)/C(=C/N2CCc3ccccc32)SC1=S | inactive |
| NS(=O)(=O)c1ccc(CCNC(=O)COC(=O)C2CCCN2C(=O)c2cccs2)cc1 (stereo unspecified) | inconclusive [inhibitor, full curve, poor fit] |
| O=C(Nc1ccc(/C=C/c2nc3ccccc3o2)cc1)c1c(F)cccc1F | inconclusive [inhibitor, full curve] |
| O=C(c1ccco1)N1CCN(S(=O)(=O)c2ccc3c(c2)OCCO3)CC1 | inconclusive [inhibitor, full curve, poor fit] |
| O=C(CCc1nc2ccccc2[nH]c1=O)OCC(=O)c1ccc(Cl)cc1 | inconclusive [inhibitor, partial curve, poor fit] |
| Cc1ccc(CNC(=O)C(NS(=O)(=O)c2cccc3nsnc23)c2ccccc2)cc1 (stereo unspecified) | inconclusive [inhibitor, partial curve, poor fit] |
| CC(c1ccccc1)n1c(-c2ccc(Cl)cc2)n[nH]c1=S (stereo unspecified) | inactive |
| O=S(=O)(NC1CCCCCCC1)c1ccccc1 | inconclusive [inhibitor, full curve, poor fit] |
| C#CCOCCOCCOCCNc1nc(N2CCN(C(=O)Cn3cc(CCCN=C(N)N)nn3)CC2)nc(N2CCN(C(=O)[C@H](C(C)C)n3cc(CCO)nn3)CC2)n1 | inconclusive [inhibitor, full curve, poor fit] |
| CCc1ccc(C(=O)c2cn(CC(=O)Nc3ccc4c(c3)OCCO4)c3ccc(CC)cc3c2=O)cc1 | inactive |
| O=C(O)c1cc2nc3c(c(C(F)(F)F)n2n1)CCCC3 | inactive |
| Cc1cc(C)cc(CN2CCC(Oc3ccc(C(=O)N4CCCC4)cc3)CC2)c1 | inconclusive [inhibitor, full curve, poor fit] |
| COc1cccc(C(=O)NCC(=O)N2CCN(c3ccc(C(F)(F)F)cn3)CC2)c1 | inconclusive [inhibitor, full curve, poor fit] |
| COc1cccc(N=Nc2c(O)[nH]c(=S)[nH]c2=O)c1 | inactive |
| COc1ccc(CCNC(=O)c2ccc3c(Cl)c4c(nc3c2)CCCC4)cc1OC | inactive |
| CC(C)=NNc1nc(-c2ccccc2)c(C)s1 | inactive |
| CCc1cccc(Nc2cc(C)nc3ncnn23)c1 | inconclusive [inhibitor, full curve] |
| Cc1ccc(NC(=O)CC2Oc3ccccc3NC2=O)c(C)c1 (stereo unspecified) | inconclusive [inhibitor, partial curve] |
